The other results are listed elsewhere or left out.
T1: UNK ZnF1-3 (human, UniProt Q9C0B0 31-174)
T1 sequence: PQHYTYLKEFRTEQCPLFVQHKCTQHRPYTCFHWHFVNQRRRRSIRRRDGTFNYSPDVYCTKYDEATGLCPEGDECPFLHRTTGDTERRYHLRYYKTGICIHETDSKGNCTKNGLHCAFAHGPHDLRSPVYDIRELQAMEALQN

B1: chr1:220276048:220276049:+_ENSG00000067704_ENST00000302637|hu_hu|hu_hu_hu_mus_True|98_108 (ssRNA)
RNA: GGGAGUUCUACAGUCCGACGAUCGCAAACAGCUUCAUUGGCUGGAAUUGUCCAAGGCUGGGUGGUCCAAACUAAAACGCUAACAGGGGAUGAGGCAUCUGUAAGAGACUCCAACUUCGGAGGAGGUCUCAGGAGGGGGAAUCUCAACAGAGGAUUGAGCAUCA
B2: chr17:88987509:88987510:+_ENSMUSG00000034709_ENSMUST00000038551|mus_mus|FALSE|FALSE (ssRNA)
RNA: GGGAGUUCUACAGUCCGACGAUCGGAAGGGGAGGGAAAGGGAUGGAGAGACAUGGCAAGGGAGAGACUCUUUUAAAAGGAAUCUGAGAUGUCUUUCAGUUUUCAAUUAUAGGAAGAAAUGACAAUACAGGAAGUAAUGACAUCCAACAGAGGAUUGAGCAUCA
B3: 20138503_20139230_1996_3pUTR_ENSMUSG00000044066_ENSMUST00000050611|mouse|control|control (ssRNA)
RNA: GGGAGUUCUACAGUCCGACGAUCGGCUGGUCCUGGGUGGAGCACUGAGGUCAGCAACAUCUGUGACAUUAUACAACCAGCAGAUCAGCUCUUCCAGCCGACAGCAAAAUGUCUGCACACACUGCACUAGAGAAGCUUUCUCCUCAACAGAGGAUUGAGCAUCA
B4: chr3:142137402:142137403:-_ENSG00000114127_ENST00000264951|hu_hu|FALSE|FALSE (ssRNA)
RNA: GGGAGUUCUACAGUCCGACGAUCAUCAGAUACUACGUCAACCCCCAUCUUCGUCAUGUAAUAUGUUCUUUUAUAUUGUCUAAACUCAGUUUCAAAUAGGUCAUCAUCUUCAGUCUCAUCUUCUAAAUUAUCCUUAGAAGUUAUCAACAGAGGAUUGAGCAUCA
B5: chr14:53324496:53324497:-_ENSG00000073712_ENST00000341590|hu_hu|FALSE|FALSE (ssRNA)
RNA: GGGAGUUCUACAGUCCGACGAUCAUUGUAAUGCAAAGAGUUGCAUAUUUUAGGCAGACAGUGAUUAUGCUGGUGAAUACUAAAAGUGUAAUACAAUAUGGUGUAAAAAUAAAAACACGAGACAAUAUACAUAACAUGCUUAUUCAACAGAGGAUUGAGCAUCA
B6: chr3:51263940:51263941:+_ENSMUSG00000063273_ENSMUST00000029303|mus_hu|motif|central (ssRNA)
RNA: GGGAGUUCUACAGUCCGACGAUCGUAAAAUGGAUGCUGUCGAAGUACAUCUUCUAGUUUUAAUAAGUCCACAUAUGAUCGGAGGGUAAUCUUCCUCAUACAGUAUGUAUGAAAGUCAAACUGGUCAUCAGUGAUUUCUAUAAACAACAGAGGAUUGAGCAUCA
B7: chr7:141441981:141441982:+_ENSG00000106028_ENST00000265304|hu_mus|hu_hu_hu_mus_False|8_58 (ssRNA)
RNA: GGGAGUUCUACAGUCCGACGAUCCUCAUGUCUUACAAACUGACGAAAUACCUGUAACACAGGUCUUCGAAACAUGGCUUCUAUUUUUCUUACAACCUAAUCUUUAGGCUUUUCCUAAAGGAAAGAAUAACCCGAGCAAAAUGACAACAGAGGAUUGAGCAUCA
B8: chr2:126475859:126475860:-_ENSMUSG00000027361_ENSMUST00000110424|mus_mus|motif|central (ssRNA)
RNA: GGGAGUUCUACAGUCCGACGAUCAGUUUCUGAAGAAUUGGACAAUGGGGCAGAAGCUUCAGCUAAGGCAGCUAACGUAGCGGAUACUGACGUAGAGGAGUUUCCAAACUGAACAGCAGAUACUCCUGUUUCAUCUGUGAGGUUCAACAGAGGAUUGAGCAUCA
B9: chr1:60041781:60041782:+_ENSMUSG00000041040_ENSMUST00000036540|mus_hu|mus_mus_mus_hu_False|68_68 (ssRNA)
RNA: GGGAGUUCUACAGUCCGACGAUCAAGUUUACAAUAGUAAAGUAAAUGCAGUAGUGGCAAAUUUUCUUUACUUUAGUUUCACAAAAGAAAAUCUUUAUAACCCAGUCCUAGUCUUGGACAUAGUGAAAGCUAUAAAUUCUGACUCAACAGAGGAUUGAGCAUCA
B10: chr17:34036268:34036269:+_ENSG00000006125_ENST00000262325|hu_hu|FALSE|FALSE (ssRNA)
RNA: GGGAGUUCUACAGUCCGACGAUCCAUUUUGCCAUCUUCUACAAAAAGCACAUUGAGUGGGAUGAGGCAGCUGAAGUAGAAGACAUCGAUAUUGUUUUUCACAGCCACCUGGAGGUUAUUCAGAGGUUCCAUCUUCAUGACUGGCAACAGAGGAUUGAGCAUCA
B11: chr2:71279510:71279511:+_ENSMUSG00000027018_ENSMUST00000028408|mus_hu|motif|central (ssRNA)
RNA: GGGAGUUCUACAGUCCGACGAUCCAUAAACUCUAAACAGUAUUUUAAAAUAUACAAUCUCUCCAAAAGAAAAUAUUCAACGGAAGAUAGAUAACUUUUAGUAUAAGCAAAAUGUCACAAGAUUUUAAAAUUAAAGUCAUCAGACAACAGAGGAUUGAGCAUCA
B12: chr6:72791194:72791195:-_ENSMUSG00000055239_ENSMUST00000068697|mus_hu|FALSE|FALSE (ssRNA)
RNA: GGGAGUUCUACAGUCCGACGAUCUGUGACUUAUGUGCAGAUGUGUUUGAAAGACCACAGCUUGAAAACUGAUUUUUGAAACUUCUCAACAACCAAAUGAAAAAAAAUGAAAAUCCCUAAUGGGCUUGACUUCUAGUGUAACCACAACAGAGGAUUGAGCAUCA
B13: chr3:10015032:10015033:+_ENSMUSG00000027533_ENSMUST00000029046|mus_mus|mus_mus_mus_hu_True|18_78 (ssRNA)
RNA: GGGAGUUCUACAGUCCGACGAUCGUUUUUACCAUCACAAGUGAUGAUACAAUCUGGCUUGGCCAUGGCGCCCAUUUUUCGCAAAGCUAUUCCCACUCCUAGCUCCUUCAUGUAUUCCUCAAAGCCGUUGCUGUCCACCAGGCGCAACAGAGGAUUGAGCAUCA
B14: 64139538_64139772_2624_CDS_ENSG00000143952_ENST00000409558|human|control|control (ssRNA)
RNA: GGGAGUUCUACAGUCCGACGAUCAGCUAUGUGAUCAUGGUAGUCCUUAGUGAUAUGAUCAAAAUGCCUAAGCAUGCUAUAUUGCUUAGGUGGUAGUCGAGCUUCAAAAUGAGCCCGGAUCACAGGAAUGUAGUGCACAAUUAACAACAGAGGAUUGAGCAUCA

biological target: T1, UNK ZnF1-3; test: nsRBNS (natural sequence RNA bind-n-seq); RBNS binding buffer (assumed for nsRBNS): 25 mM Tris pH 7.5, 150 mM KCl, 3 mM MgCl2, 0.01% Triton X-100, 500 ug/ml BSA, 20 U/ml SUPERase-In, 4 C; UNK is unkempt and MSI1 is Musashi-1; names of the RNAs are library labels; protein concentration not given here; high values mean tight binding

Binder	binding signal [enrichment R]
B1	2.21
B2	1.62
B3	1.3
B4	0.799
B5	1.15
B6	0.957
B7	0.698
B8	1.35
B9	0.542
B10	1.17
B11	1.56
B12	1.35
B13	0.81
B14	1.22
